Measured values as given in the supplement of paper PMC12632987.
Over roughly 2,300 sequences, “median log2 fold change of GCK-ALFA target abundance (FLAG IP / Myc IP barcode read proportion)” has its median near 0.095; the lowest 2% begin near -0.47. This is one part of the list.

B1: LC3A_28_1072 (protein)
chain: SSVEEEIEKAKKEAEEARKKGEPVVVTVEFKETDTDEDIEKKIETVKEIGEILKDVPDAAIVVSLDGENAKKYLDEIAKVGEEIEEKYPNITVIIALSEE
B2: LC3A_28_839 (protein)
chain: SKIDEEIEKALKKAKEAAEKGESEVITINVFGGATEEEIEKVIEALEEIAEILKDIKDQAIIINLEEPIKEEHLNKLIDKAEEIEKKYPNITVIIALPED
B3: LC3A_28_1214 (protein)
chain: SATDAAIADAKAQFAAAIASGEPTTIVVKIPKTVTLEGAKAIMDAIEAEVEKAKDLKGLSIVIDVEEGVSQEVINLIADRADEIEKKYPNVTVIIALEEE
B4: LC3A_free_46_2392 (protein)
chain: IEGEIDLLLEGATEEQVKELAEAAEKKIRELAKEKGINVEIEVEIEKLEDGSYYVRIKVKSDSKDKNTVLDILDETEEYLEEKAKELGVKLSSIISVKES
B5: LC3A_28_1229 (protein)
chain: SPVDEQIAAAKAEAEQAKAEGESRVITIKVSGETTLEEAEKIAEAMEEIAEMLKDLPHQTILIDVERGVSQEVLDLLAEAAERIEKKYPNVTVIIALEEE
B6: LC3A_3_1548 (protein)
chain: MEELIKETLEALRKAGKSEEVLKAAKETFEALKKKGYENALKTFAEEAKELLHLPDELLLDFFEEVLEVIETEDLNEEELIERIKEIARTTRNEGEIIEL
B7: LC3A_45_1991 (protein)
chain: MAKATIDILVPRELLEEALAVIEESAEEIKKEEGDEVKIDLEKLRESAEATKDEEEVYLVLEIYHPDKEKALDIADSIVDRLHEKLGDRVAAIISVEELP
B8: LC3A_3_1375 (protein)
chain: SEELIEETLAYLREKGKSEETLEAVRRAMEALAEKGYEEALKTFAELLKEMEDLPDEILLDFAEDVLEAVENEDLNEEELIEFIKEEARVARSEGEIIEL
B9: LC3A_free_46_2380 (protein)
chain: YKINIDVDFGAMDKETAEKMAKEIKEAAKKIAKKTGVEIKVDVKIITDEEGETYLEVNITITGEDKEKVEAAANELLKEIDKIADKAGVSYIISVDFEDT
B10: LC3A_28_919 (protein)
chain: MTKEEIIERIEEIADRAIAEGKDAFIEVKIDSSHTVEEAKEIMEKIREEVARLSAAGLKVDIVIDLDDVSQEVLDVVAEEAEEIEEEFPNVSVVIALDEE
B11: LC3A_28_726 (protein)
chain: NPLEESIEKALERAKRLAKEGKSDVIEITVPGDATQEDIERVIEALYEIAEIVKDLERVDIVINVEGGVAQEHIDRLADAADEIEKKYPNVTVIIALDEE
B12: LC3A_free_46_2307 (protein)
chain: VKAEIIIDLSHKDEEVLKKAVEEIVKKAKEIAEKYGLKVEIEVSFSKDEDGEYFAEIKIEVEGEKLEDIEKFVNELIKEIEKIAEKYGVSAVISVEIEKP
B13: LC3A_free_39_2207 (protein)
chain: SEEELEKLIKEVAKAGGIDYEYVREKIKEIQKVAGLSIEEMLELVKEILKAVKAGADAEEILERILEIAKRLKAEGKSSEEILEEMLEEIRDFENLVPLD
B14: LC3A_28_682 (protein)
chain: SRMEESIKAALEAAKAALAAGEPAVIELNVYADITEEELEKLLEKLEEIAELASKVPGSAIVINVEAGLKEEHLNKIMDKAEELEKKYKNVTIIIALEEE
B15: LC3A_free_8_2480 (protein)
chain: SSQKLVDAALKGLDKLEEEVEKKAKELGLSELDILELKLEIGALKAEVISLSDKSKEEIYKATKEGLERIIELAKEINEELAKVVKEKSEEILKELEKLL
B16: LC3A_45_1987 (protein)
chain: MYEAEVDLLVPKELAEEALKVAKEAMEELKKKYGPDLKVDEETLEKTYEESKDEEEVYLRIKIYHPDEDVALDAAVELEDRIHEKLGDKVASIISYKKVP
B17: LC3A_28_681 (protein)
chain: SALEKELEKALAEAKEAAAAGEPTVIVINVPGDATQEEIEKFIKALEEIAEILKDVKGAAIVVDLSKDLSQEHQDKIIDAAEKINEKYPNVTVIIALEEK
B18: LC3A_28_1232 (protein)
chain: MTPEEIAARKVAEAKAQLAAGNKVIEIDISAEEGSPENADALAKALKEIAELANKAGGVSIIVTLDSKTPQENQQKLIDTAEEAEKKYPNVTIIIAIDED
B19: LC3A_28_692 (protein)
chain: SAVDAQIAAARAAAAEAAARGEEATLTVTITADTTEADVDRIMAAIEEIAEEMSKVAKLSIIVDIEAGVDQAHIDRLMDFGDELSEKYPNVSIIFALDEE
B20: LC3A_3_1794 (protein)
chain: MEELIEELLRELREAGKSEETLEAVRRALEALAERGYEEALETFVEGLRELKDAPDEILLWLAEEVLALVEEEDLDEEELKARIEELLRLARNEAEIEEL
B21: LC3A_59_2028 (protein)
chain: TAEIDAFIAALKAAKDDLEAMAEILLEGFTAVKDDPELLKELKEKVVATLVELGLLSEELAKELVEEVEKIVKTEKDREKALKLILEELTVARNENEIIE
B22: LC3A_17_555 (protein)
chain: MEELKKELEELLKELEKLVKELEKYDPEAAKKLKEKLKEAKKALEKGDLKKALKILKEVAEEAAEVFDSLEHIDPELMSILSMEAEGLLIEALSLEEKLE
B23: LC3A_3_1589 (protein)
chain: SEELVEEKLKRLREAGLSEEVLEAARKVLEALAERGFERAMEVLTEKLLELKDVDDEVLLAMLEEILHKIETEDLNEEEIIKVIEEEARVARLEAEIEEL
B24: LC3A_3_1425 (protein)
chain: SEELLEEAKEELEKAGFSEETKEAVLRLIELALEAGEYEGVRELIEELKKAKDVPSEEVLEAAEEALRLIEEEGVSMEEALRYFISEIRVLILDLEIEEL
B25: LC3A_free_8_2447 (protein)
chain: KNEELVTEVTEILDELEEKLEEKAKELGLSRLEILELELDVGEIKIDLISAVDKSIEEIEKVATEGLDDLKKLAAEYSEELKKLVEEAEKKILELIEKAK
B26: LC3A_3_1525 (protein)
chain: SAAIRAEILALLRAAGADEETLADAEALLELLEARGYAEAQRTLLEELRRLADASPETLADFVREVLELAETEDLNEAELSERIREIADTALADAEIEEL
B27: LC3A_132_258 (protein)
chain: SEEKKEEFLEKFKELIDKIVEALQAGQDPSPYLKELDELAEEAAEELSLEELEELVEEAEKYARERFAERLDPNDPEARRTLLIVEMILDSALIESELRA
B28: LC3A_28_778 (protein)
chain: MDIDKEVEKAIEEAKKAKEEGKETVITIKVPNGITQEDVEKVIEGMEKIAEITKDMKSTAIVVDVDSGVPQEHLDKLIDAGEEIEEKYPNVTVIFALDED
B29: LC3A_28_1312 (protein)
chain: SKLKKQFEEAIKEVEAAAAAGEPVVVTIDITAEEAEKELEEILKLLEELAKVASKAPGATIIIDVDEDVKPENLKKIAEKAEELEKKYPNVTVIIAIEDK

Biological target: MAP1LC3A, Q9H492
Assay: median log2 fold change of GCK-ALFA target abundance (FLAG IP / Myc IP barcode read proportion) (log2 ratio); each designed protein is fused to an ALFA-tag nanobody in HEK293 cells to bring the named protein to FLAG-tagged glucokinase (GCK); Myc marks an untargeted standard; higher = target protein stabilised (more abundant)
Details: target protein: 3xFLAG-MCP-GCK-ALFA reporter; HEK293 landing pad (RPLP)
In short: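 Binders fused to an ALFA nanobody were recombined as a library into HEK293 landing-pad cells, which were induced with 2 μg mL^−1 doxycycline and then transfected to express a FLAG-tagged target and a Myc-tagged standard. After 48 h, circular RNA barcodes recovered by anti-FLAG and anti-Myc immunoprecipitation of lysates were reverse transcribed, amplified and sequenced. Each binder's target abundance is the median log2 ratio of FLAG to Myc barcode read proportions, from barcodes present at ≥10^−7 in both replicates, binders carrying ≥3 barcodes per replicate, a 10^−6 pseudocount and pooled replicates.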

Binder | median log2 fold change
B1 | 0.165
B2 | 0.00879
B3 | 0.367
B4 | 0.108
B5 | 0.178
B6 | 0.187
B7 | 0.091
B8 | 0.306
B9 | -0.0183
B10 | -0.111
B11 | 0.274
B12 | 0.228
B13 | 0.108
B14 | -0.369
B15 | 0.122
B16 | 0.106
B17 | 0.271
B18 | 0.169
B19 | -0.0924
B20 | 0.183
B21 | 0.119
B22 | -0.476
B23 | -0.0121
B24 | 0.123
B25 | 0.0273
B26 | 0.166
B27 | -0.582
B28 | -0.305
B29 | -0.0764
